Only a part is listed here, and it is no random draw. Records with an inconclusive call do not appear. Active and inactive are the calls of the source. Calls follow the shape of the dose curve; as a rule, active = well fitted curve in the direction sought with a large enough effect; inconclusive = small, poorly fitted or top-dose-only effect, or effect the other way; inactive = no such curve, though single readings can be large or run the other way.
These molecules were tested against Cytochrome P450 1A2 (Homo sapiens) (UniProt P05177) (assay: Cytochrome panel assay with activity outcomes). Conditions: recombinant CYP, pro-luciferin dealkylation, luminescence, p450-cyp1a2; series mostly up to 57.1 µM.
Chain of UniProt P05177 (P05177 whole entry, looked up): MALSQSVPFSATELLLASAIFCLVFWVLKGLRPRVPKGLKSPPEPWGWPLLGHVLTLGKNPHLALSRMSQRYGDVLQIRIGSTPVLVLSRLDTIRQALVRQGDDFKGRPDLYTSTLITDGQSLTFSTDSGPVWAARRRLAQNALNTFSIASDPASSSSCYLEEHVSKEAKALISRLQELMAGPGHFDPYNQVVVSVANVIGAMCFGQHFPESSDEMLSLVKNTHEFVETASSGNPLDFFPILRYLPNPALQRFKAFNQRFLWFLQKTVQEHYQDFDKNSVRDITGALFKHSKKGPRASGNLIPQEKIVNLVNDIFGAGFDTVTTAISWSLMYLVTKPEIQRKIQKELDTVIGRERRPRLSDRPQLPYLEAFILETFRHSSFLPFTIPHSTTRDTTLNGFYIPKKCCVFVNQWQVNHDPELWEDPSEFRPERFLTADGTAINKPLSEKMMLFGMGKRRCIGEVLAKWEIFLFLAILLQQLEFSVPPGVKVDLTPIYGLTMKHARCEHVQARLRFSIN
In the case of `Clc1ccc(CS[C@@H](Cn2ccnc2)c2ccc(Cl)cc2Cl)cc1`, the AC50 was active: 200 nM. With `CN1[C@@H]2CC[C@H]1CC(OC(=O)[C@@H](O)c1ccccc1)C2` (some centres not stated) the AC50 was “inactive”.

Source: PubChem BioAssay AID1851 (National Center for Advancing Translational Sciences (NCATS), 2009)
